Structures can show the parent of a compound that is named as a salt. Some of the results follow. The data scatter; read single values as rough.
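Also: High-content imaging of ALDEFLUOR-stained cells with Hoechst-labelled nuclei in 384-well plates, triplicate wells, scored as Z-score against 0.1% DMSO vehicle, negative meaning fewer ALDHbr cells.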

The test system of the assay is MKN45. Nature of the assay: ALDHbr (CSC) cell proportion score relative to DMSO vehicle (ratio to DMSO); breast (SUM159) / gastric (MKN45) / pancreatic (PANC1) / colon cancer lines; ALDHbr cells have high ALDH activity and are rich in cancer stem cells (CSC); higher = more CSC (ALDHbr) cells remaining. The note with it: 10 µM; 72 h.
As to `CN(N=O)C(=O)N[C@H]1C(O)O[C@H](CO)[C@@H](O)[C@@H]1O` (mixture of isomers) [Streptozotocin], the ALDHbr turned out to be 0.779.

In the case of `CC[N+](CC)(CC)CCOc1cccc(OCC[N+](CC)(CC)CC)c1OCC[N+](CC)(CC)CC` [Gallamine triethiodide], the ALDHbr worked out at 1.03.

For the compound `CN(C)CCOC(c1ccc(Cl)cc1)c1ccccn1` (stereo not given) [Carbinoxamine maleate salt], the ALDHbr was determined as 1.2. As for `O=C(O)[C@H]1/C(=C/CO)O[C@@H]2CC(=O)N21` [Clavulanate potassium salt], the ALDHbr was found to be 1.17. For the compound `O=S(=O)(O)CCS` [Mesna], the ALDHbr was 1.3. As for `CCOc1ccc(NC(C)=O)cc1` [Phenacetin], the ALDHbr amounted to 0.96. The result for `NS(=O)(=O)c1cc2c(cc1C(F)(F)F)NC(Cc1ccccc1)NS2(=O)=O` (stereo not given) [Bendroflumethiazide] reads 0.959.

As for `COc1cc(C)c(/C=C/C(C)=C/C=C/C(C)=C/C(=O)O)c(C)c1C` [Acitretin], the ALDHbr worked out at 1.11. As for `CC#C[C@]1(O)CC[C@H]2[C@@H]3CCC4=CC(=O)CCC4=C3[C@@H](c3ccc(N(C)C)cc3)C[C@@]21C` [Mifepristone], the ALDHbr stood at 0.621. For the compound `COc1cc(-c2ccc(=O)[nH]n2)ccc1OC(F)F` [Zardaverine], the ALDHbr amounted to 1.01.

As for `Nc1nc2[nH]cc(CCc3ccc(C(=O)N[C@@H](CCC(=O)O)C(=O)O)cc3)c2c(=O)[nH]1` [Pemetrexed disodium], the ALDHbr worked out at 0.245. For `O=C(O)c1ccccc1OP(=O)(O)O` [Fosfosal], the ALDHbr was found to be 0.956. Regarding `CCc1nn(CCCN2CCN(c3cccc(Cl)c3)CC2)c(=O)n1CCOc1ccccc1` [Nefazodone hydrochloride], the ALDHbr was found to be 0.645. The result for `COc1cc(NC(C)CCCN)c2ncccc2c1` (stereo not given) [Primaquine diphosphate] reads 1.4.

Take `Cn1cnc2c1c(=O)[nH]c(=O)n2C` [Theobromine]: the ALDHbr was found to be 1.12. On to `CC(=O)OCC(=O)[C@@]1(O)CC[C@H]2[C@@H]3CCC4=CC(=O)C=C[C@]4(C)[C@@]3(F)[C@@H](O)C[C@@]21C` [Isoflupredone acetate], for which the ALDHbr amounted to 1.03. In the case of `CC(=O)CCCCn1c(=O)c2c(ncn2C)n(C)c1=O` [Pentoxifylline], the ALDHbr worked out at 0.923. For `O=C1c2cccc3c2[C@H](CCC3)CN1[C@@H]1CN2CCC1CC2` [Palonosetron hydrochloride] the value was 0.959.

For `CC(C)(C)NCC(O)COc1cccc2c1CCC(=O)N2` (stereo not given) [Carteolol hydrochloride], the ALDHbr came out at 1.14. Consider `CCCc1nc2c(C)cc(-c3nc4ccccc4n3C)cc2n1Cc1ccc(-c2ccccc2C(=O)O)cc1` [Telmisartan], for which the ALDHbr turned out to be 0.802. As to `N[C@@H](Cc1ccc(O)c(O)c1)C(=O)O` [Levodopa], the ALDHbr came to 1.11. Turning to `CC(=O)N(CC(C)C(=O)O)c1c(I)cc(I)c(N)c1I` (stereo not given) [Iocetamic acid], the ALDHbr came out at 0.799.

With `CCOc1cc(CC(=O)N[C@@H](CC(C)C)c2ccccc2N2CCCCC2)ccc1C(=O)O` [Repaglinide], the ALDHbr was found to be 0.913. Regarding `CCCc1ncc(C[n+]2ccccc2C)c(N)n1` [Amprolium hydrochloride], the ALDHbr came out at 0.894. As for `CN1CCC(OC(c2ccccc2)c2ccccc2)CC1` [Diphenylpyraline hydrochloride], the ALDHbr amounted to 1.12. With `Cn1c(=O)c2c(ncn2CCO)n(C)c1=O` [Etofylline], the ALDHbr worked out at 0.895. For `C#C[C@]1(O)CC[C@H]2[C@@H]3CCc4cc(OC)ccc4[C@H]3CC[C@@]21C` [Ethynylestradiol 3-methyl ether], the ALDHbr was 0.637. Consider `Cc1cccc(CN2CCN(C(c3ccccc3)c3ccc(Cl)cc3)CC2)c1` (stereo not given) [Meclozine dihydrochloride], for which the ALDHbr was determined as 0.418.

For `CCN1CCCC(OC(=O)C(c2ccccc2)c2ccccc2)C1` (stereo not given) [Piperidolate hydrochloride], the ALDHbr was found to be 1.01. For `CC[C@H]1OC(=O)[C@H](C)[C@@H](O[C@H]2C[C@@](C)(OC)[C@@H](O)[C@H](C)O2)[C@H](C)[C@@H](O[C@@H]2O[C@H](C)C[C@H](N(C)C)[C@H]2O)[C@](C)(O)C[C@@H](C)/C(=N\OCOCCOC)[C@H](C)[C@@H](O)[C@]1(C)O` [Roxithromycin] the value was 0.973. Turning to `Cc1cccc(C)c1OCC(C)N` (stereo not given) [Mexiletine hydrochloride], the ALDHbr worked out at 0.994. With `NC(=O)N1c2ccccc2CC(=O)c2ccccc21` [Oxcarbazepine], the ALDHbr was 1.1. With `NC(CO)C(=O)NNCc1ccc(O)c(O)c1O` (stereo not given) [Benserazide hydrochloride], the ALDHbr was 0.851. The result for `CCCN1CCCC[C@H]1C(=O)Nc1c(C)cccc1C` [Ropivacaine hydrochloride] reads 1.01. Turning to `COCC(=O)Nc1c(I)c(C(=O)NCC(O)CO)c(I)c(C(=O)N(C)CC(O)CO)c1I` (stereo not given) [Iopromide], the ALDHbr amounted to 0.948.

Turning to `CN(CCOc1ccc(CC2SC(=O)NC2=O)cc1)c1ccccn1` (stereo not given) [Rosiglitazone Hydrochloride], the ALDHbr is 0.831. Consider `CCCCNC(=O)NS(=O)(=O)c1ccc(C)cc1` [Tolbutamide], for which the ALDHbr came to 1.07. Consider `CCc1cc(C(N)=S)ccn1` [Ethionamide], for which the ALDHbr stood at 1. `CC(C)NCC(O)COc1ccc(CCOCC2CC2)cc1` (stereo not given) [Betaxolol hydrochloride]: the ALDHbr stood at 0.962.

Consider `COc1ccc2cc([C@H](C)C(=O)O)ccc2c1` [Naproxen], for which the ALDHbr came out at 1.03.

For the origin of these results see the supplement of paper PMC11880418.
